Measurements published in the supplement of paper PMC3334620.
The full ranking holds about 33,000 sequences; the median of “E-score (-0.5 to 0.5)” is about -0.043, and the highest 2% start at about 0.37. The list shows a part of the results.

The sequences below were run against T1, Upc2 (UniProt Q12151) (assay: PBM E-score (8-mer binding enrichment) (E-score (-0.5 to 0.5)); higher = stronger / more preferred TF binding; most listed sequences are background and not binding sites). Conditions: protein concentration: 200 nM; construct: GST-full length.
T1 sequence: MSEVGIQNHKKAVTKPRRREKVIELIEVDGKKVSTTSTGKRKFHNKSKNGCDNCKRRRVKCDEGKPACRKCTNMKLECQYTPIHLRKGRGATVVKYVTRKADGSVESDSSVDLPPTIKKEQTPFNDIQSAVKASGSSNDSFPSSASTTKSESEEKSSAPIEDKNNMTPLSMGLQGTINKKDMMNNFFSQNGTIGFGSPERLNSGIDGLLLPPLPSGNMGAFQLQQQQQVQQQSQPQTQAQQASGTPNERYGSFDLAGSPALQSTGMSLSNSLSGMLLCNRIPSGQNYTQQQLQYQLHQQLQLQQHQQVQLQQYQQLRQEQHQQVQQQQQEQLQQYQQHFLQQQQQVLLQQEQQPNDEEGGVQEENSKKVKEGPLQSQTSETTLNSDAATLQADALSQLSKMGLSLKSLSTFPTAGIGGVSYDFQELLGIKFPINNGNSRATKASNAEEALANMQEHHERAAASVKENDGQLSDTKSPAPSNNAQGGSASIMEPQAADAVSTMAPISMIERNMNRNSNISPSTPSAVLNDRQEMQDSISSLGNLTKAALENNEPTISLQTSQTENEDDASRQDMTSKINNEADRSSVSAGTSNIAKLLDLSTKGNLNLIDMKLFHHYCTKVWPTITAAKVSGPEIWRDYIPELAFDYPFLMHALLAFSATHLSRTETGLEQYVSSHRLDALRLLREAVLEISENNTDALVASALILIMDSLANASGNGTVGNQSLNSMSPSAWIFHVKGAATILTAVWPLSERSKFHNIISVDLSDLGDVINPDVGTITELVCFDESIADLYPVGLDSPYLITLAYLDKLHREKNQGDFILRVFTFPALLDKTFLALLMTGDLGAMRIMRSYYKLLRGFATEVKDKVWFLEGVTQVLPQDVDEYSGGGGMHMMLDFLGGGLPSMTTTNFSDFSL
Summary of the method: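 Yeast transcription factors carrying a GST tag, as full-length proteins or DNA-binding domains, were produced by PURExpress in vitro transcription/translation. About 100-200 nM protein was applied to universal all-10-mer Agilent arrays, double-stranded by primer extension on fresh or once-stripped slides. Bound protein was detected with fluorescent anti-GST, and scans were normalised with masliner. The Universal PBM Analysis Suite gave each ungapped eight-base word, pooled with its reverse complement, an E-score, a modified Wilcoxon-Mann-Whitney statistic.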

Sequence	PBM E-score
CGCAGCGC	0.00979
ATAGCGAC	0.17
ACATGTCT	-0.0129
AAAGTGAG	-0.0574
AGAGGGCA	-0.369
GCGCCCAC	-0.143
ACGAAACT	0.382
CTAGTGGA	-0.212
AATGCTAC	0.0344
CGCATTCA	-0.00072
GTCTCTTA	0.224
AAGCAACG	0.0123
GAACCGCA	0.00543
AACCTAGA	-0.0534
ATGACTGA	-0.212
ATTTAATG	0.0817
ATGTAGCC	-0.221
ACATTGGA	-0.219
ACGAAGCT	0.307
AGAGCCGC	-0.201
CCGCAACA	-0.00775
CGCATCAG	0.0112
CCGTTCTA	0.096
CGCGCCAA	0.146
TGAAGGAA	-0.134

Sequence	PBM E-score
ACGGGTCG	0.309
ATATCACC	0.0514
GCTGATCA	-0.171
TATTGAAA	0.0372
ATTCTTGA	-0.00327
ATTGCCCG	0.0261
AGCGCTGA	0.0452
CATGGCAG	-0.0996
ATCAACCA	-0.186
CCGAGCCG	0.106
CCGGTTAC	0.202
ATGATCAA	-0.00713
GGTCCTAC	-0.129
GGGCGTCA	-0.223
GCCGCCAA	-0.0764
GATTTCAC	-0.0136
CGCAAATA	0.0612
CCCTCACC	-0.241
GAACATGC	-0.031
CAATCGCC	-0.00123
AGCGATCG	0.215
ATCAGCAC	-0.101
AATTCAAT	0.103
AGTCGAAC	0.0362
ACGAAATC	0.286

Sequence	PBM E-score
GCGCGGCC	-0.0982
ACGCCCTG	0.0275
CATGCGCA	-0.132
AATGGGCT	-0.0961
TGGGGTAA	0.0421
CCGACGCA	-0.0765
AACCGGAA	0.143
ACCCAATA	-0.0303
AGCGCTGC	-0.137
CAACACAA	0.0721
ATAACATG	-0.113
GATAATAC	-0.0546
ATACATAT	0.128
AATGTAAG	0.0556
ACGCAGGA	0.0909
AAGAGGGG	-0.0457
CCGCGTCG	0.0115
GCTTTAAA	0.036
CATGTGTA	0.041
AGGCCAAG	-0.17
AGGAGCAC	-0.0424
AACAGGGA	-0.0461
CGAATGCA	0.16
CAGAGTGC	-0.192
AGCCTCTA	-0.151

Sequence	PBM E-score
CCCACCCC	0.033
ACATCTTG	-0.155
AGATATTC	-0.25
AATAAACG	0.429
GGCTCGTA	0.472
GTTTACAA	0.164
CTCATTAC	0.0555
TCCGCCAA	-0.216
GGCATGCA	0.0402
ACGGCCTC	0.174
ACTTGCTG	-0.221
AACCCTAC	-0.147
ATGGACCC	-0.159
ATTATACG	0.482
CTGAAGAC	-0.078
CCGAGTAA	0.231
GGTCACAC	-0.153
ACGACTTA	0.357
GACTGCAC	-0.101
CCAGACAA	-0.0816
TACTACGA	0.241
TAACCCGA	0.147
TCCTCTAA	-0.14
TAGGGTGA	-0.106
CTACCCTA	-0.185

Sequence	PBM E-score
ACAAATAC	0.158
ATCGGGAC	-0.0497
CGTCTCCA	-0.0186
AAGGGATC	0.138
CGGAGATA	0.252
AGTCCAGA	-0.166
AGGAGCTA	-0.158
ATCCCGTA	0.373
CAGCACCG	-0.18
CAGTAGGG	-0.253
ATAGTCGG	-0.0606
GGCGCGGA	-0.177
ACGTCCCC	0.0823
AGTGTGAC	-0.142
ATCCTAGA	-0.133
AGGGTACG	0.364
ACAGTAGA	-0.0149
CAGTACAG	0.0309
AATTAGTC	0.00586
AATCCCCT	-0.164
GCCCAACA	-0.0641
CAGGCTTC	-0.121
CAGTGCGA	-0.0196
CCGAAGCC	-0.139
AGCTGATG	-0.114

Sequence	PBM E-score
CCGGACTC	-0.134
AAGGGCAT	-0.29
AGTCCGAT	0.0136
AATCACAA	-0.0387
GTCTCAAC	-0.0784
ACTGGTCA	-0.0573
GATTATAA	0.132
AGCGGTAC	0.262
AAAGGATA	0.0822
ATTGAGAG	-0.11
GCAGAGAA	-0.115
GCCGGTCC	-0.259
CGGCTCAC	-0.161
CCGGGGAA	-0.23
CGCGAGCC	0.225
AATGGAAA	-0.166
CATCTTAG	-0.0125
GTTTACCA	0.266
ATCGATAG	-0.0178
ACTCCTGC	-0.0877
AAGCAGAG	-0.114
ATCTCGGG	-0.0286
GCAGACCA	-0.171
ACGCGACA	0.129
GCACTTTA	0.0116

Sequence	PBM E-score
ACGCGACT	0.0452
GCGTGGTA	-0.0682
ACGAGGAA	0.359
ATCACCTC	0.0142
GTAGGGGA	-0.223
ATGCCAAT	-0.253
AGCGTCCC	-0.159
GAATAAAC	0.135
CATTCGGG	-0.124
AGCAAGTG	-0.273
ACTAGCTC	0.103
GCGCGTCA	-0.0954
CCGTCTCA	-0.226
AATTTATA	0.234
CATGAAGG	-0.00415
ATTGGAGG	-0.157
CCGTCGCA	0.111
CAATACGG	0.196
AAGGCCTT	0.101
ATGCGACC	0.254
CGACTACC	-0.0187
GCATCCAA	-0.276
